# Measured values taken from the supplement of paper PMC4166925.
# ± gives the standard deviation of the averaged measurements. In all, about 33,000 sequences were measured (“E-score (dimensionless, -0.5 to 0.5)”: median about -0.046, highest 2% from about 0.36 on). The list shows a part of the results.
# Test system: T1, SpTbr T-box DNA-binding domain (GST fusion)
# T1 sequence: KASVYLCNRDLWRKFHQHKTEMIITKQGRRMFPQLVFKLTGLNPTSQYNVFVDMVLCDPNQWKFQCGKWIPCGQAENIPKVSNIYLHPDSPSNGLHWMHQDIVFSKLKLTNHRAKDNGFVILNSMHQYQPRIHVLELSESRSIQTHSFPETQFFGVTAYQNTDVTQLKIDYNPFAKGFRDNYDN
# Experiment: PBM E-score of 8-mer (E-score (dimensionless, -0.5 to 0.5)); Tbr is Tbrain of the sea star Patiria miniata (Pm) or the sea urchin Strongylocentrotus purpuratus (Sp); higher = stronger binding preference; most listed sequences are background and not binding sites
# Conditions: the construct has about 5 more residues each side
# How it was run: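 Each ungapped 8-mer received an enrichment E-score from the Universal PBM Analysis Suite, averaged over duplicate arrays. The proteins were Tbr T-box DNA-binding domains, covering the whole T-box plus about five flanking residues, fused to GST and expressed in BL21 E. coli at 20 °C before glutathione affinity purification. Universal Agilent oligonucleotide arrays were made double-stranded by primer extension and incubated with 200 nM protein in PBS (pH 7.5). The arrays were then scanned and quantified, and every 8-mer was scored from probe intensities.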
row,Sequence,PBM E-score of 8-mer
1,CATGAAAC,-0.146 ± 0.031
2,TACGTCCA,-0.0945 ± 0.018
3,CCCTGGTA,-0.0536 ± 0.066
4,GTCGACGA,0.171 ± 0.063
5,CAACCTAA,-0.0131 ± 0.11
6,GAAAGGCA,0.00213 ± 0.013
7,GGAGTGGA,-0.03 ± 0.12
8,GATCGACC,-0.0795 ± 0.055
9,ACCCGACC,-0.126 ± 0.01
10,TAGGGCAA,-0.321 ± 0.024
11,CAGTCATA,-0.132 ± 0.016
12,CCGCTTGA,-0.0306 ± 0.035
13,AACAGGCG,0.135 ± 0.075
14,GCGTGGCA,0.136 ± 0.016
15,ATAATGTA,-0.303 ± 0.025
16,CAGTGTTA,0.31 ± 0.028
17,CAGCTATG,0.0757 ± 0.064
18,CATGGACA,-0.00426 ± 0.0041
19,CATGTCCA,-0.269 ± 0.052
20,GTCGCGCA,0.219 ± 0.027
21,CTACCCAA,-0.174 ± 0.042
22,CTACAAAG,-0.129 ± 0.029
23,AGTGACAG,0.3301 ± 0.0022
24,GATCAGAA,-0.177 ± 0.034
25,CATTCAGC,-0.185 ± 0.052

row,Sequence,PBM E-score of 8-mer
1,AAGGGCAA,-0.154 ± 0.066
2,ATACCCCG,-0.108 ± 0.072
3,ACAGCGTA,-0.0419 ± 0.011
4,GAAGGACA,-0.112 ± 0.03
5,ACTCTACG,0.0339 ± 0.099
6,GGCCTGAA,-0.0727 ± 0.012
7,GGAAACCA,-0.125 ± 0.01
8,CAATCAAC,0.0141 ± 0.025
9,ACTTGTCG,0.308 ± 0.031
10,AGTTTCTC,0.06 ± 0.046
11,AAATGTAA,0.0931 ± 0.041
12,ACCATTTC,-0.0127 ± 0.03
13,CCCGTAAG,-0.129 ± 0.07
14,AACCCATC,-0.169 ± 0.053
15,ATGGACAT,-0.213 ± 0.018
16,CCTCTTTA,-0.14 ± 0.026
17,GTAGTGTA,-0.0121 ± 0.013
18,ATTATTGG,-0.12 ± 0.033
19,GCTAAAGC,-0.00702 ± 0.053
20,CCTAGATC,-0.0537 ± 0.0026
21,ACTCTGCA,-0.014 ± 0.021
22,GCGAGCCA,0.0215 ± 0.041
23,CAGATCGG,-0.115 ± 0.015
24,CGTACAGC,-0.0716 ± 0.023
25,ATCACCTG,0.304 ± 0.022

row,Sequence,PBM E-score of 8-mer
1,GACCCAAA,-0.18 ± 0.054
2,TAAGTGAA,-0.0758 ± 0.051
3,GGCAAGAC,0.0122 ± 0.011
4,CGCCACCC,0.237 ± 0.046
5,GTTATTCA,-0.0759 ± 0.052
6,ATGCACTA,-0.168 ± 0.035
7,GCCCTCCC,-0.274 ± 0.044
8,AGCGATAT,0.11 ± 0.017
9,CAAAATAC,-0.206 ± 0.0041
10,CCAATTGA,-0.188 ± 0.042
11,CGGTATAA,-0.0109 ± 0.074
12,AACAGATT,0.0599 ± 0.037
13,AAGCCGTG,0.00206 ± 0.0093
14,CGGGTTTC,0.00543 ± 0.0079
15,AGGCCTAC,-0.0867 ± 0.044
16,ATATCCTG,-0.272 ± 0.034
17,CGGTTAAC,0.146 ± 0.035
18,CATCGTTA,0.0458 ± 0.0019
19,GACCTCAC,0.137 ± 0.049
20,TCCCAGCA,0.0137 ± 0.013
21,CATTGTGG,-0.178 ± 0.048
22,ATTCATTA,-0.0182 ± 0.06
23,AAAACGCC,0.113 ± 0.023
24,GAGGGCCA,-0.232 ± 0.072
25,CTGTTGCA,0.0393 ± 0.061

row,Sequence,PBM E-score of 8-mer
1,AGACTGGC,0.00567 ± 0.0024
2,ACCTCTTC,-0.0239 ± 0.026
3,GCTATCTA,-0.0579 ± 0.033
4,GGCTTACC,-0.0755 ± 0.061
5,AAAACACT,0.205 ± 0.1
6,CTTCACTC,0.115 ± 0.059
7,CGTTAAGC,0.0779 ± 0.00084
8,AGGCCCTC,-0.375 ± 0.068
9,AACGAGAT,-0.132 ± 0.043
10,CCAAGTAC,-0.0466 ± 0.056
11,AGAACGTC,-0.086 ± 0.067
12,GATTCTCA,0.106 ± 0.068
13,ACCTGCGC,0.0909 ± 0.023
14,AGGGACGC,-0.089 ± 0.12
15,AGGCATCG,-0.23 ± 0.05
16,GAACGTAA,-0.0925 ± 0.029
17,CCCTAACA,0.17 ± 0.033
18,AAGCTGTC,0.223 ± 0.066
19,GAGTCTGC,-0.138 ± 0.081
20,CAGCCTTC,0.0325 ± 0.001
21,GTACTGGA,-0.256 ± 0.056
22,AGTCCCGC,-0.0227 ± 0.052
23,ACGTTGGA,-0.135 ± 0.066
24,CACCTATA,0.392 ± 0.015
25,AGACGTCG,-0.0995 ± 0.079

row,Sequence,PBM E-score of 8-mer
1,GACGGTAA,-0.0456 ± 0.024
2,CTCCAATA,-0.156 ± 0.004
3,CAATTAGG,0.147 ± 0.066
4,ACAAAGGA,-0.0763 ± 0.049
5,ATCGGCCG,-0.2382 ± 0.0013
6,GAAGCGAA,-0.0531 ± 0.12
7,ATGATTAA,-0.0561 ± 0.013
8,TCACACGA,0.387 ± 0.0091
9,ACAGACTG,-0.139 ± 0.066
10,ACATTCGT,0.0884 ± 0.062
11,AGTATCGG,-0.0105 ± 0.054
12,GCCCTGAC,-0.0195 ± 0.058
13,TACACTGA,0.00374 ± 0.063
14,GTAAAGAC,-0.0781 ± 0.036
15,CACTGAGC,0.00197 ± 0.0073
16,GTGAGAAC,0.4469 ± 0.0042
17,ATTAATTC,-0.207 ± 0.076
18,AGGGATCA,-0.022 ± 0.095
19,AGCAACCC,0.0294 ± 0.035
20,CCCTCAAA,-0.0653 ± 0.13
21,AACGGGGT,-0.127 ± 0.006
22,CGGAAACC,0.175 ± 0.018
23,ACAAATGC,-0.0364 ± 0.03
24,AGAAAACA,0.0295 ± 0.051
25,AAAGGACA,0.0207 ± 0.05

row,Sequence,PBM E-score of 8-mer
1,TAGCCGCA,0.0217 ± 0.05
2,GTCATGGA,-0.0759 ± 0.081
3,CAGGACAG,-0.0574 ± 0.018
4,ATCAAATC,-0.22 ± 0.01
5,CCGATTAC,0.07 ± 0.041
6,AATTGAGA,-0.0508 ± 0.076
7,GAGGCCAA,-0.16 ± 0.036
8,TACCACTA,-0.0994 ± 0.024
9,AAGAAACA,-0.0506 ± 0.011
10,GGGCACCC,-0.2 ± 0.022
11,ACCAGTAT,-0.111 ± 0.068
12,GTAGACCA,-0.0855 ± 0.051
13,AATATCGT,-0.123 ± 0.002
14,TGCTAACA,0.369 ± 0.022
15,CGTTTCAA,-0.029 ± 0.015
16,ATTGGATA,-0.212 ± 0.011
17,ACCTGGCA,0.227 ± 0.034
18,ATCTTATG,-0.187 ± 0.032
19,ACTGGGTA,-0.132 ± 0.036
20,AAATTTCA,-0.0215 ± 0.17
21,AGGGCAGG,-0.285 ± 0.058
22,CGGGAGGA,-0.127 ± 0.073
23,GATGGCGA,0.142 ± 0.012
24,AGAATACA,0.00377 ± 0.032
25,CAATGACA,0.203 ± 0.013

row,Sequence,PBM E-score of 8-mer
1,CTACAGCA,-0.181 ± 0.015
2,GAGACCAA,0.115 ± 0.032
3,AATTAAGA,-0.276 ± 0.046
4,GATCTTCA,-0.0222 ± 0.061
5,GCCTTTTA,-0.0926 ± 0.034
6,ACTAAAAA,-0.09237 ± 0.00071
7,CTCGAAAG,-0.00025 ± 0.0061
8,ACTCCCAA,-0.114 ± 0.051
9,CGTTCTAG,-0.121 ± 0.0086
10,CTAGACAG,-0.13 ± 0.095
11,ACTAGTAC,-0.0462 ± 0.018
12,GAGACATA,-0.0863 ± 0.009
13,CGATCACA,0.396 ± 0.0068
14,GCTGTTGA,0.0254 ± 0.016
15,CCCTAATA,-0.254 ± 0.0084
16,GCATTCAA,-0.124 ± 0.036
17,ACGATGAG,-0.0616 ± 0.043
18,GTGTGCAA,0.349 ± 0.0091
19,CCACCCCA,0.157 ± 0.027
20,CGGACGCA,0.00632 ± 0.00052
21,ATATTACG,-0.204 ± 0.045
22,CATAAGTA,-0.114 ± 0.018
23,CGCCTGAG,-0.0319 ± 0.0048
24,GAAATAAA,-0.00915 ± 0.082
25,CGACCGCG,0.163 ± 0.0064

row,Sequence,PBM E-score of 8-mer
1,ACACACCT,0.44741 ± 0.0002
2,AATGGTAA,-0.0737 ± 0.019
3,CAAACTGA,-0.0249 ± 0.0038
4,ATGGGACA,-0.0727 ± 0.059
5,GCACGGCC,-0.0241 ± 0.019
6,ACTATGAT,-0.173 ± 0.003
7,ACATTAGC,0.0163 ± 0.082
8,CATTAGAA,-0.146 ± 0.024
9,ACTTACTC,0.147 ± 0.023
10,CGCCTCGC,0.256 ± 0.0026
11,CGCCCGTA,-0.0039 ± 0.045
12,ACCACGAG,-0.00539 ± 0.052
13,AGCTTGTC,0.098 ± 0.066
14,AATGATCG,-0.00734 ± 0.11
15,ATTTATAG,-0.248 ± 0.074
16,CTCCTCGC,0.117 ± 0.07
17,AGCCGCTC,-0.0902 ± 0.017
18,ATATGCGG,-0.139 ± 0.049
19,CAAGTACC,-0.095 ± 0.12
20,ACGGAGTG,0.154 ± 0.025
21,AGCGCCAT,0.0577 ± 0.043
22,AGATCCCT,-0.108 ± 0.031
23,AACTCTAG,-0.123 ± 0.014
24,AGGTCGGC,-0.0758 ± 0.092
25,AGCCGCTG,-0.0377 ± 0.025

row,Sequence,PBM E-score of 8-mer
1,ACCCGTGA,0.248 ± 0.011
2,CACCTTCA,0.412 ± 0.0047
3,CTGCTAAC,0.321 ± 0.029
4,ACCACACC,0.369 ± 0.029
5,AAGGAGGT,0.185 ± 0.028
6,GGGACCCC,-0.306 ± 0.0076
7,ACCATCCC,-0.0478 ± 0.032
8,CTTCCCTA,-0.22388 ± 0.00013
9,ACTCCAAA,0.00039 ± 0.0059
10,AGTTGCCA,0.25162 ± 0.00012
11,CCTGTCGA,0.194 ± 0.0047
12,CTGGTAAC,0.0436 ± 0.03
13,AAAATGAG,-0.0804 ± 0.053
14,CACAGGGG,0.0864 ± 0.031
15,CACTGTGC,0.188 ± 0.041
16,AATGACGG,-0.0019 ± 0.0025
17,TGCGAACA,0.419 ± 0.015
18,GGGGAAGA,-0.0658 ± 0.0073
19,ATCGCTAG,0.165 ± 0.0081
